Experimental data as given in PubChem BioAssay AID1347165 (National Center for Advancing Translational Sciences (NCATS), 2019).
The campaign covered roughly 220,000 compounds. About 5,700 (2.6%) were called active. The shares of active, inactive and inconclusive entries below differ from those in the screen. The call rests on the fitted dose curve; in most records, active means well fitted inhibition curve with a large enough effect; inconclusive means small, poorly fitted or top-dose-only effect; inactive means no such curve, though single readings can be large or run the other way. A potency beside an inconclusive call is a rough fit, not a confirmed value.

Target: Lysine-specific demethylase 5B (Homo sapiens) (UniProt Q9UGL1)
UniProt Q9UGL1, sequence (Q9UGL1 whole entry, looked up): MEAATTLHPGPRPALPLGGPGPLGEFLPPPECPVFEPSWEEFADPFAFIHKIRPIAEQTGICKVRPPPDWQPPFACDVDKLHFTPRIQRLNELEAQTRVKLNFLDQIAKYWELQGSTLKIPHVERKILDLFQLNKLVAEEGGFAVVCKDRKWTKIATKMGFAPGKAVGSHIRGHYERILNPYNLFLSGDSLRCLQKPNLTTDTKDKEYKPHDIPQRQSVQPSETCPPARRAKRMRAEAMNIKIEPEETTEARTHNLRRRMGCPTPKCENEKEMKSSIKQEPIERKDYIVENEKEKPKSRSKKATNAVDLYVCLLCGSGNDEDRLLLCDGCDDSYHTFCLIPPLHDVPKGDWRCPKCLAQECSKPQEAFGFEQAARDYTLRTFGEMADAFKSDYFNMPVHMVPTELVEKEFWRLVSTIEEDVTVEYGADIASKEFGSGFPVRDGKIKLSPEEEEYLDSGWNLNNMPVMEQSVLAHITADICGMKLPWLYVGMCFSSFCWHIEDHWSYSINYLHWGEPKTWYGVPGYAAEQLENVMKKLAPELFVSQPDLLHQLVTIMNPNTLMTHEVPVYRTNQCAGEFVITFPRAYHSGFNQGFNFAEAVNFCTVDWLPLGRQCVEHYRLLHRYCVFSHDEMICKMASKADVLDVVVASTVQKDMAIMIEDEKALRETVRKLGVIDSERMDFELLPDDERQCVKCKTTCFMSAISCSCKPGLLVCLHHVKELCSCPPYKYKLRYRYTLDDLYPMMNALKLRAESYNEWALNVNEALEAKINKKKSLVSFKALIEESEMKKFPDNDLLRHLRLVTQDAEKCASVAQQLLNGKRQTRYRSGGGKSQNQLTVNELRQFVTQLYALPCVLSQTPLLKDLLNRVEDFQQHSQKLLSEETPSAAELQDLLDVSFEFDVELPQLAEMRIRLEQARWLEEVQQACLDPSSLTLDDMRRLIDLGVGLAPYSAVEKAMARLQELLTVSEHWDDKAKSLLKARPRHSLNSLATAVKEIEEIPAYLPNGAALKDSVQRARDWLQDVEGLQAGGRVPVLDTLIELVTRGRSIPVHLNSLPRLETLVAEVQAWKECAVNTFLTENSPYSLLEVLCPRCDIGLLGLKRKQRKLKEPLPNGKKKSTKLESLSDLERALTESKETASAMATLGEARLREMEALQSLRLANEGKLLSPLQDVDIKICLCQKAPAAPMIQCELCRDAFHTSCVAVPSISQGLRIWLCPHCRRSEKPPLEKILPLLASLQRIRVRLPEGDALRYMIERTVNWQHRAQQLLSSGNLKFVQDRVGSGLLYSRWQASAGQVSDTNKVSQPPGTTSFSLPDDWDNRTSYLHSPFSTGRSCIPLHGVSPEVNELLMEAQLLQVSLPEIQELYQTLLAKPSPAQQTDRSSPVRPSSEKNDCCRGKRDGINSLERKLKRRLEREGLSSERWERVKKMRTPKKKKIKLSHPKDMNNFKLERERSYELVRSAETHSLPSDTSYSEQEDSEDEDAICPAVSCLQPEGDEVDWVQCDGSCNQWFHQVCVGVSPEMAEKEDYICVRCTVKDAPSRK
Test: Primary screen for KDM5B Histone Demethylases FDH-coupled qHTS; further: nearly all actives have a fitted effect of over 70% in size; on activity change, negative = inhibition: 0% is about no effect
Settings: FDH-coupled NADH fluorescence (FDH is formaldehyde dehydrogenase); activity change, negative = inhibition: at 57.7 µM (top of the series) unless noted
Outline: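 Coupled FDH/NAD⁺ fluorescence readout. KDM5BΔAP 200 nM final; compound titration, 10 min RT preincubation; substrate mix 12.5 µM H3K4me3, 25 µM 2-OG, 50 µM Fe(II), 100 µM ascorbate, 0.25 mM NAD⁺, 0.25 U/mL FDH; ΔRFU over 30 min.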
Potency means the concentration at half of the fitted maximal effect; tags describe the fitted curve by direction and shape.

Compound	activity change, negative = inhibition	Potency
CN(C(=O)Cn1c(=O)n(C)c(=O)c2sccc21)c1ccccc1	inactive: -13.8%	
CC(C)c1cnc(N2CCC(COc3ccc4c(cnn4CCC(=O)O)c3)CC2)nc1		inconclusive: 35.5 µM [inhibitor, partial curve, poor fit]
COc1ccc(/C=C\c2onc(C)c2S(=O)(=O)N2CCC(C(=O)Nc3ccccc3OC)CC2)cc1		inconclusive: 15.8 µM [inhibitor, partial curve, poor fit]
Cn1ccnc1CNC[C@H]1Cn2c(-c3ccc(Cl)cc3)cnc2CO1		inconclusive: 25.1 µM [inhibitor, partial curve, poor fit]
O=C(Nc1ccccc1)C1=C(N2CCN(c3ccc(F)cc3)CC2)c2ccccc2S1(=O)=O	inactive: 6.69%	
Cc1ccc(C(=O)NCc2nnc3c(-c4nc(C(C)C)no4)cccn23)cc1C		active: 28.2 µM
O=C1CCCc2c1cc(C(=O)NC1CCCCC1)c(=O)n2-c1ccc(C(F)(F)F)cc1		inconclusive: 35.5 µM [inhibitor, partial curve, poor fit]
CCOc1ccc(-c2cc3c(=O)n(CCNC(=O)c4ccc(OC)cc4C)ccn3n2)cc1		active: 28.2 µM
COc1cccc(-c2nc(C#N)c(N3CCN(C(=O)c4ccccc4)CC3)o2)c1		inconclusive: 2.51 µM [inhibitor, full curve, poor fit]
CN(C)CC1(O)CCC2(CCN(C(=O)c3ccsc3)CC2)CC1	inactive: -10.3%	
COC(=O)c1[nH]nc(-c2ccccc2)c1-c1ccccc1	inactive: 6.18%	
CC(C)CC(=O)N1CCOCC12CCN(Cc1cccc(C#N)c1)CC2		inconclusive: 44.7 µM [inhibitor, single point]
COc1ccc(Cl)cc1-c1ccc2c(c1)C(=O)N1CCN(C(=O)c3ccccc3)C[C@@H]1C(=O)N2		active: 22.4 µM
Cc1ccc(S(=O)(=O)NCCc2nnc3ccc(SCc4ccccc4C)nn23)cc1		inconclusive: 28.2 µM [inhibitor, single point]
O=C(Nc1cccc(Cl)c1)C1CCCN(c2nc3ncccc3o2)C1 (stereo not given)		inconclusive: 11.2 µM [inhibitor, single point]
Cc1ccc(NC(=O)N2CCC3(CC2)OCCO3)cc1C	inactive: 9.73%	
COc1ccc(CNC(=O)c2noc(-c3ccc4c(c3)OCO4)n2)cc1		active: 28.2 µM
CCN1C(=O)C2(C(C(=O)c3ccc(C)o3)=C(O)C(=O)N2CCN2CCOCC2)c2ccccc21 (stereo not given)	inactive: -3.18%	
COc1ccc(-c2nc3scc(CCNS(=O)(=O)c4c(C)noc4C)n3n2)cc1	inactive: -9.12%	
Cc1ccc(NC(=O)/C=C/c2ccccc2)c(Br)c1	inconclusive: -31.3% [inhibitor]	
O=C(c1ccc(Cl)cc1)N1CCC(n2cc(-c3ccc(OC(F)(F)F)cc3)[nH]c2=O)CC1		inconclusive: 56.2 µM [inhibitor, partial curve, poor fit]
COC(=O)[C@@H]1Cc2ncn(Cc3ccc(Cl)cc3)c2CN1Cc1ccc(C(=O)O)cc1		inconclusive: 22.4 µM [inhibitor, partial curve, poor fit]
O=C(NC1CCN(c2cc(-c3cccs3)[nH]n2)C1)c1ccc(F)cc1Cl (stereo not given)		active: 15.8 µM
CN1CCN(CN2C(=O)C(O)(CC(=O)c3ccc(Br)s3)c3ccccc32)CC1 (stereo not given)	inactive: -5.14%	

Compound	activity change, negative = inhibition	Potency
Cc1noc(C)c1C(=O)N1CCCC(c2nnc3n2CCNC3)C1 (stereo not given)	inactive: 15.5% [at 115 µM]	
Cc1csc(CNC(=O)c2nccnc2N)n1		inconclusive: 22.4 µM [inhibitor, partial curve, poor fit]
CN(C)C[C@@H]1CN(C2CCOCC2)C[C@H]1NC(=O)c1ccnn1C		inconclusive: 28.2 µM [inhibitor, single point]
O=C(NCCN1CCOCC1)c1ccc(Cl)cc1O		inconclusive: 10 µM [inhibitor, partial curve, poor fit]
CCNC(=O)N[C@H]1CO[C@H]2[C@@H]1OC[C@@H]2Nc1nccc(-c2ccc(OC)cc2)n1		active: 28.2 µM
CCOc1ccccc1CN1CCC(Cc2ccc(C(=O)N3CCOCC3)cc2)CC1	inactive: 5.79%	
Cc1ccc2sc(N(Cc3cccnc3)C(=O)c3ccc(C#N)cc3)nc2c1C	inactive: 9.99%	
COC(=O)c1ccc(NC(=O)c2c(NCc3ccc(C)o3)sc3c2CCCC3)cc1		inconclusive: 12.6 µM [inhibitor, partial curve, poor fit]
CCn1c(C(=O)NCc2cccc(Br)c2)cc2oc3ccccc3c21		inconclusive: 31.6 µM [inhibitor, partial curve, poor fit]
CC(=O)NCC1CCCN(Cc2ccc(-c3ccccc3C#N)o2)C1 (stereo not given)		active: 28.2 µM
CC(C)CCN1CC[C@H](c2nc3ccccc3[nH]2)C1		inconclusive: 11.2 µM [inhibitor, full curve]
O=C1CCN(Cc2cccnc2)CCCC(c2nc(-c3cccnc3)no2)CCN1 (stereo not given)		inconclusive: 25.1 µM [inhibitor, partial curve, poor fit]
CCc1ccc(-c2nc3ccc(Br)cc3c(C(=O)O)c2C)s1		inconclusive: 28.2 µM [inhibitor, partial curve, poor fit]
COc1ccc2c(Cl)c(C(=O)OCC(=O)Nc3ccccc3F)sc2c1Cl	inactive: 9.41%	
CN1[C@@H](CCC(=O)N2CCC(O)CC2)CNC(=O)[C@@H]2[C@H]1CCN2Cc1ncc[nH]1		inconclusive: 39.8 µM [inhibitor, partial curve, poor fit]
O=C(CCc1ccnc(N2CCOCC2)c1)N1CCCN(c2ncccn2)CC1		inconclusive: 10 µM [inhibitor, partial curve]
O=C(c1ccnc(-c2nnc3ccc(N4CCOCC4)nn23)c1)N1CCCCC1	inactive: -40.3% [at 86.2 µM]	
O=C(Nc1cccc(F)c1)N1CCC(Oc2ccccc2-c2nc(-c3ccncc3)no2)C1 (stereo not given)		inconclusive: 35.5 µM [inhibitor, partial curve, poor fit]
Cc1cc(C(=O)N2CCC(c3noc(-c4ccccc4)n3)C2)n[nH]1 (stereo not given)		inconclusive: 5.01 µM [inhibitor, partial curve]
CCCc1noc(-c2cccn3c(CNC(=O)c4ccc(C)cc4)nnc23)n1		active: 25.1 µM
C/C(=N/Nc1ccc(S(N)(=O)=O)cc1[N+](=O)[O-])c1ccccc1Br	inactive: -7.03%	
COc1ncccc1-c1ccnc(-c2nnc(C)n2-c2ccccc2)c1		active: 31.6 µM
CCCCOC(=O)COc1ccc2c(C)c(CCC)c(=O)oc2c1		inconclusive: 25.1 µM [inhibitor, partial curve, poor fit]
CCN(CC)CC(=O)N1CCN(c2nc(C(C)C)c3c(c2C#N)CC(C)(C)OC3)CC1		inconclusive: 25.1 µM [inhibitor, partial curve, poor fit]

Compound	activity change, negative = inhibition	Potency
COc1cc(NC(=O)CCS(=O)(=O)c2nc(-c3cccs3)cc(C(F)(F)F)n2)cc(OC)c1OC		inconclusive: 25.1 µM [inhibitor, single point]
CC(=O)NC(NC(C)=O)C(O)C(O)C(O)C(O)CO (stereo not given)	inactive: -9.27%	
Cn1nc(C(=O)OCC(=O)c2c[nH]c3ccccc23)c2ccccc2c1=O	inactive: 9.51%	
O=C1COc2ccc(-c3ccncc3)nc2CN1Cc1ccc(C(F)(F)F)cc1		active: 39.8 µM
O=C(CN1C(=O)NC2(CCOc3ccccc32)C1=O)c1c[nH]c2ccccc12 (stereo not given)	inactive: 12.4%	
CC(C)NC(=O)CN1CCCN(c2ncccc2C(F)(F)F)CC1		inconclusive: 39.8 µM [inhibitor, single point]
O=C(NC1CCCCC1)c1ccc2c(c1)N(Cc1ccccc1)C(=O)c1ccccc1S2	inactive: 6.24%	
Cn1cc(CC(=O)N2CCCc3ncc(C(=O)Nc4cccnc4)cc32)c2ccccc21	inactive: -7.59% [at 86.2 µM]	
COc1ccc(N2CCCC2)c(NC(=O)COc2ccccc2Cl)c1		inconclusive: 25.1 µM [inhibitor, single point]
COc1ccc(C(=O)NC2CCN(c3cc(-c4ccc(Cl)cc4)[nH]n3)C2)c(OC)c1 (stereo not given)		inconclusive: 14.1 µM [inhibitor, partial curve, poor fit]
COc1ccccc1Oc1c(C)oc2cc(OCC(=O)Nc3cccc(NC(C)=O)c3)ccc2c1=O	inactive: 15%	
O=C(Cn1nc2c(cc1=O)CCCCC2)NC1CCCc2c1[nH]c1ccccc21 (stereo not given)		active: 28.2 µM
Nc1nc2c(s1)C(c1ccccc1)CC(=O)N2 (stereo not given)		active: 28.2 µM
Cc1ccccc1NC(=O)c1cc2cn(C(C)C)cc2s1		inconclusive: 11.2 µM [inhibitor, partial curve]
O=C(O)c1cc(NS(=O)(=O)c2ccc(F)c(F)c2)ccc1Cl	inactive: 2.68%	
N#Cc1c(-c2ccccc2)cc(-c2cccs2)nc1S(=O)Cc1ccc(Cl)cc1 (stereo not given)		inconclusive: 22.4 µM [inhibitor, partial curve, poor fit]
O=C(Nc1cccc(F)c1)C1(CCO)CCN(c2ncccn2)C1 (stereo not given)		active: 28.2 µM
COc1cccc(-c2cc3c(=O)n(CCNC(=O)c4ccc(Cl)cc4)ccn3n2)c1		inconclusive: 25.1 µM [inhibitor, partial curve, poor fit]
O=C(NC1CCN(c2cc(-c3ccc(Cl)cc3)[nH]n2)C1)c1ccncc1 (stereo not given)		inconclusive: 8.91 µM [inhibitor, partial curve, poor fit]
CCCn1cc(-c2ccnc(NC3CCN(Cc4ccccn4)CC3)n2)c(C)n1		active: 28.2 µM
COc1ccc(CN2CCOC[C@H]2c2ncc(-c3cccc(F)c3)[nH]2)cc1		inconclusive: 31.6 µM [inhibitor, single point]
Cc1ccc(C(=O)C2=C(O)C(=O)N(Cc3cccnc3)C2c2ccc(OC(C)C)cc2)o1 (stereo not given)		inconclusive: 28.2 µM [inhibitor, single point]
